Experimental data from PubChem BioAssay AID588591 (National Center for Advancing Translational Sciences (NCATS), 2011).
Screen size: about 390,000 compounds; about 4,700 (1.2%) were called active. Inconclusive means that the source gave no clear call. Such entries were picked first, then a sample of the others. Calls come from the whole dose curve; as a rule, active = well fitted inhibition curve with a large enough effect; inconclusive = small, poorly fitted or top-dose-only effect, or another doubt; inactive = no such curve, though single readings can be large or run the other way. Potencies beside an inconclusive call are fits to weak or partial responses and may not hold up.
% is set by controls: 0 for no effect and ±100 for the full control effect; potency is the fitted concentration of half-maximal effect; tags give direction and shape of the fitted curve.

Each molecule was assayed against DNA polymerase eta (Homo sapiens) (UniProt Q9Y253) (assay: qHTS for Inhibitors of Polymerase Eta). Details: recombinant Pol eta, fluorescent DNA replication assay; series mostly up to 114 µM; activity change, negative = inhibition: at the top concentration.
Chain of UniProt Q9Y253 (Q9Y253 whole entry, looked up): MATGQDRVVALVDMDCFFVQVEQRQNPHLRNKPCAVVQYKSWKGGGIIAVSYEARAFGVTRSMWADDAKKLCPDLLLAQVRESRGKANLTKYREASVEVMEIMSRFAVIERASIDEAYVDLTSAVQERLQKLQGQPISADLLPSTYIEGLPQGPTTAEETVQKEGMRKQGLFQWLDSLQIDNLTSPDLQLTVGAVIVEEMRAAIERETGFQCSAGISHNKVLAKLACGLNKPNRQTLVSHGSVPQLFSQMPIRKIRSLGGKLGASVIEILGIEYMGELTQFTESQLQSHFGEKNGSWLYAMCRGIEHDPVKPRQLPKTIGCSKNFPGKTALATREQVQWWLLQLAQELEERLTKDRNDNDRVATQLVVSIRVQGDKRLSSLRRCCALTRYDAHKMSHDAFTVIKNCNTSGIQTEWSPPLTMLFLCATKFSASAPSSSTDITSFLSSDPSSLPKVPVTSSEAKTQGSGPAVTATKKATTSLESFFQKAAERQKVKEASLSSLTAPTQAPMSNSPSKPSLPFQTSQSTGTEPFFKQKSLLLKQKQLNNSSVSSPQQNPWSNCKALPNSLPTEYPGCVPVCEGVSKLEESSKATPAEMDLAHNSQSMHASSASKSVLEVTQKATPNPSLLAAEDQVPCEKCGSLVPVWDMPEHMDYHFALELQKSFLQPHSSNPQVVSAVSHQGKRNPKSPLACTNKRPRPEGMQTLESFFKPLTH
Procedure, shortened: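 Pol eta (10 nM) was preincubated with compounds for 15 min at room temperature, after which fluorescent replication substrate (50 nM final) was added to start the reaction. Fluorescence was read kinetically at 0 and 10 min.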
With `CC(NS(=O)(=O)c1ccccc1)C(=O)NCc1ccco1` (stereo unspecified) the Potency was inconclusive: 89.1 µM [inhibitor, single point]. In the case of `O=c1c(OC2OC(CO)C(O)C(O)C2OC2OC(CO)C(O)C(O)C2OC2OC(CO)C(O)C(O)C2O)c(-c2ccc(O)c(O)c2)oc2cc(O)cc(O)c12` (stereo unspecified), the Potency is reported as inconclusive: 17.8 µM [inhibitor, full curve]. With `CCn1c2ccccc2c2cc(/C=N/NC(=O)c3ccncc3)ccc21` the Potency was inconclusive: 35.5 µM [inhibitor, partial curve, poor fit]. In the case of `CCc1cccc(C)c1NC(=O)Cn1ccn(-c2ccc(F)cc2)c(=O)c1=O`, the “activity change, negative = inhibition” value is reported as inactive: -15.3%. With `COc1ccc(CCN2C(=O)c3oc4ccc(F)cc4c(=O)c3C2c2ccc(C(C)(C)C)cc2)cc1` (stereo unspecified) the “activity change, negative = inhibition” value was inactive: -17%. For `CCC(=O)c1ccccc1OCC(=O)Nc1c(C)cccc1C`, the “activity change, negative = inhibition” value was inactive: -3.01%. For `CC(C)=CCC12Oc3cc(O)ccc3C1(O)Oc1cc(O)c([C@H]3C=C(C)CC(c4ccc(O)cc4O)[C@H]3C(=O)c3ccc(O)cc3O)c(O)c1C2=O` (stereo partly specified), the Potency was inconclusive: 35.5 µM [inhibitor, partial curve]. In the case of `COc1ccccc1N1CCN(c2ncnc3c2cnn3C)CC1`, the “activity change, negative = inhibition” value is reported as inactive: 18.9%. For `O=C(COC(=O)c1ccccc1F)c1ccc(-n2nncc2-c2ccco2)cc1`, the Potency was inconclusive: 22.4 µM [inhibitor, partial curve]. `Cc1ccc(C(C)C)cc1-n1nnc(-c2cccc(Cc3ccc4ccccc4c3)c2)c1C(C)O` (stereo unspecified) was tested, and the “activity change, negative = inhibition” value was inactive: -11.4%. For `CC(=O)c1c(N2CCN(c3cccc(Cl)c3)CC2)nc(=S)n(-c2ccccc2)c1C`, the “activity change, negative = inhibition” value was inactive: -9.51%. With `Cc1ccc(C(=O)OCC(=O)Nc2ccc(Cl)cn2)cc1S(=O)(=O)N1CCOCC1` the Potency was inconclusive: 31.6 µM [inhibitor, partial curve, poor fit]. With `COc1ccc(N2CCN(C(=O)c3ccc(CS(=O)(=O)c4ccccc4C)o3)CC2)cc1` the Potency was inconclusive: 79.4 µM [inhibitor, partial curve, poor fit]. `N#CC1=CN(Cc2ccccc2)C=C(/C=N/Nc2ccccc2)C1` was tested, and the Potency was inconclusive: 89.1 µM [inhibitor, partial curve, poor fit]. For `Cc1ccc(OCC(=O)Nc2ccc(-c3nc4ncccc4o3)cc2)cc1`, the Potency was inconclusive: 7.94 µM [inhibitor, full curve, poor fit]. `O=C(O)c1cc(S(=O)(=O)N2CCN(S(=O)(=O)c3ccc4ccccc4c3)CC2)ccc1Br` was tested, and the Potency was active: 17.8 µM. For `COc1cccc(-n2c([S-])c(C(=O)Nc3ccc(S(=O)(=O)N4CCOCC4)cc3)[n+]3cc(C(N)=O)ccc23)c1`, the Potency was inconclusive: 35.5 µM [inhibitor, partial curve, poor fit]. With `O=S(=O)(c1ccc(N=C2NN=C(c3cc(F)ccc3F)CS2)cc1)N1CCOCC1` the “activity change, negative = inhibition” value was inactive: -18.3%. For `O=C(Nc1ccc2c(c1)OCO2)C1Cc2ccccc2CN1S(=O)(=O)c1cccs1` (stereo unspecified), the Potency was inconclusive: 3.98 µM [inhibitor, partial curve, poor fit]. For `COc1cc(/C=C2/SC(=S)N(CCC(=O)Nc3cccnc3)C2=O)cc(OC)c1OC`, the Potency was inconclusive: 50.1 µM [inhibitor, partial curve]. In the case of `COc1ccc(NC(=O)Cn2nnc(C(=O)NCCc3ccccc3)c2N)c(OC)c1`, the Potency is reported as active: 35.5 µM. With `COc1ccc(CCNC(=O)COc2ccc([N+](=O)[O-])cc2)cc1` the “activity change, negative = inhibition” value was inactive: -20%. For `O=C(CCSc1nc(-c2ccco2)cc(C(F)(F)F)n1)N1CCN(c2ccccc2)CC1`, the Potency was inconclusive: 79.4 µM [inhibitor, partial curve, poor fit]. With `CCn1nc(C(=O)N2CCc3ccccc3C2)c2ccccc2c1=O` the Potency was inconclusive: 3.98 µM [inhibitor, partial curve, poor fit]. For `COc1ccc(NC(=O)Cn2nc(-c3ccncc3)ccc2=O)cc1Cl`, the “activity change, negative = inhibition” value was inactive: -19.3%. In the case of `O=C(COc1ccc(F)cc1Cl)Nc1ccc(S(=O)(=O)Nc2nccs2)cc1`, the Potency is reported as inconclusive: 20 µM [inhibitor, partial curve, poor fit]. With `Oc1ccc(Br)cc1CNc1ccccn1` the Potency was inconclusive: 89.1 µM [inhibitor, partial curve, poor fit]. `COc1ccc(NC(=O)N(C)C[C@@H]2OCc3cnnn3CCCC(=O)N([C@H](C)CO)C[C@@H]2C)cc1` was tested, and the “activity change, negative = inhibition” value was inactive: -2.61%. In the case of `COCCCn1c(=N)c(C(=O)NCc2ccc3c(c2)OCO3)cc2c(=O)n3ccccc3nc21`, the Potency is reported as inconclusive: 22.4 µM [inhibitor, single point]. `O=C1C(=O)N(CCS(=O)(=O)c2ccccc2)c2ccc(Cl)cc21` was tested, and the Potency was inconclusive: 89.1 µM [inhibitor, partial curve, poor fit]. With `O=C(O)c1ccc2c(c1)S(=O)(=O)c1cc(N3CCN(c4cnccn4)CC3)ccc1C2=O` the Potency was inconclusive: 31.6 µM [inhibitor, single point]. For `Cc1ccc(/C=C/C(=O)Nc2nnc(SCc3ccc(C#N)cc3)s2)o1`, the Potency was inconclusive: 31.6 µM [inhibitor, partial curve, poor fit]. `COc1ccc(NC(=O)CSc2sc3c(O)cc(=O)[nH]c3c2C#N)c(OC)c1` was tested, and the Potency was active: 22.4 µM. With `O=S(=O)(Nc1ccc(-c2ccc3nncn3n2)cc1)c1ccc(Cl)s1` the Potency was inconclusive: 28.2 µM [inhibitor, partial curve, poor fit]. With `C=CCn1c(SCC(=O)N(CC)C2CCS(=O)(=O)C2)nc2cc(C(=O)O)ccc2c1=O` (stereo unspecified) the “activity change, negative = inhibition” value was inactive: 0.249%. For `O=C(Cc1cccs1)N/N=C/C=C/c1ccco1`, the Potency was active: 8.91 µM. For `N#Cc1c(N)oc(-c2ccco2)c1-c1ccco1`, the Potency was inconclusive: 35.5 µM [inhibitor, partial curve, poor fit]. In the case of `Cn1ccc2cc(S(=O)(=O)N3CCC(C(=O)NCCc4ccccc4)CC3)ccc21`, the “activity change, negative = inhibition” value is reported as inactive: -1.41%. With `O=C(CSc1ccccc1)Nc1nnc(COc2ccc(Cl)cc2)s1` the Potency was inconclusive: 70.8 µM [inhibitor, partial curve]. For `COc1ccc(-n2nnnc2SCC(=O)c2ccc(O)c(O)c2)cc1`, the Potency was active: 39.8 µM. For `Cc1ccc(-n2nc3c(c2NC(=O)/C=C\c2ccc4c(c2)OCO4)CSC3)cc1`, the Potency was inconclusive: 28.2 µM [inhibitor, partial curve, poor fit]. In the case of `O=C(O)CN1C(=O)/C(=C\c2cccc(OCc3ccc(Cl)cc3)c2)SC1=S`, the Potency is reported as active: 50.1 µM. `O=C1C2C(C(=O)N1/N=C/c1cc(Br)cc([N+](=O)[O-])c1O)C1C=CC2C12CC2` (stereo unspecified) was tested, and the Potency was inconclusive: 25.1 µM [inhibitor, single point]. For `CSc1nc(SCC(=O)NCc2ccco2)c2c3c(sc2n1)COC(C)(C)C3`, the Potency was inconclusive: 56.2 µM [inhibitor, partial curve, poor fit]. With `O=C(Nc1cc(-c2nc3ncccc3o2)ccc1Cl)c1ccc([N+](=O)[O-])o1` the Potency was inconclusive: 35.5 µM [inhibitor, single point]. For `O=C(NCc1nnnn1-c1ccc(Cl)cc1)c1ccc(Br)o1`, the Potency was inconclusive: 3.55 µM [inhibitor, full curve, poor fit]. With `O=C(COC(=O)c1nc(Cl)c(Cl)c(Cl)c1Cl)c1ccc[nH]1` the Potency was inconclusive: 17.8 µM [inhibitor, partial curve, poor fit]. With `Cc1ccc(-n2ncc3c(=O)n(CC(=O)N4CCN(C(=O)c5ccco5)CC4)cnc32)cc1` the Potency was inconclusive: 31.6 µM [inhibitor, partial curve, poor fit]. `CCCn1nc([N+](=O)[O-])c(C(C#N)c2nc3ccccc3o2)c(Cl)c1=O` (stereo unspecified) was tested, and the Potency was active: 22.4 µM. In the case of `CCCCOC(=O)c1c(C)oc2ccc(NS(=O)(=O)c3ccc4c5c(cccc35)C(=O)N4)cc12`, the Potency is reported as inconclusive: 14.1 µM [inhibitor, full curve, poor fit]. For `CCCCCCC[C@@H](C/C=C/CCC(=O)N(C)C/C(=C/Cl)C/C(=C\C(=O)N1CC(OC)=CC1=O)OC)OC`, the Potency was inconclusive: 44.7 µM [inhibitor, partial curve, poor fit]. In the case of `COc1ccc(N2CCN(S(=O)(=O)c3ccc4c(c3)NC(=O)CS4)CC2)cc1`, the Potency is reported as inconclusive: 3.16 µM [inhibitor, partial curve, poor fit]. With `CCOC(=O)C(CC)Sc1ccc2nnc(CCNS(=O)(=O)c3ccc(C)cc3)n2n1` (stereo unspecified) the “activity change, negative = inhibition” value was inactive: -20.4%. `Clc1cccc(-c2ccc(CNCc3ccccn3)o2)c1` was tested, and the Potency was inconclusive: 100 µM [inhibitor, partial curve, poor fit]. With `O=C(CN1C(=O)NC2(CCCC2)C1=O)OCc1cc(=O)n2cc(Br)ccc2n1` the Potency was inconclusive: 44.7 µM [inhibitor, partial curve]. `Cc1nc2ccccc2n1CCc1nc2c3ccccc3nc(SCC(=O)NCc3ccco3)n2n1` was tested, and the Potency was inconclusive: 22.4 µM [inhibitor, full curve]. `O=C(CSc1n[nH]c(-c2ccco2)n1)N1c2ccccc2Sc2ccccc21` was tested, and the Potency was inconclusive: 39.8 µM [inhibitor, partial curve, poor fit]. In the case of `Cc1ccc(-c2cc(C(=O)N/N=C/c3ccco3)n[nH]2)s1`, the Potency is reported as inconclusive: 22.4 µM [inhibitor, partial curve, poor fit]. In the case of `CCc1ccc(Nc2nc(N)nc(CSc3nnnn3-c3ccccc3)n2)cc1`, the Potency is reported as inconclusive: 12.6 µM [inhibitor, partial curve]. For `CCc1ccccc1NC(=O)Cn1ncc2c(C)n(Cc3ccccc3F)c(C)c2c1=O`, the “activity change, negative = inhibition” value was inactive: -8.52%. `COc1ccc(C(=O)OCc2cc(=O)oc3c(C)c(C)ccc23)cc1S(=O)(=O)N1CCOCC1` was tested, and the Potency was inconclusive: 28.2 µM [inhibitor, single point].
